# Reference: PMC4336329 (PLoS ONE, 2015)
# Screen size: about 310,000 compounds; about 14,000 (4.5%) showed an effect of 50% or more. The effect is printed as a negative number. This is one part of the list.
# Target: human ether-à-go-go-related gene (hERG) potassium channel (human, UniProt Q12809)
# Assay: primary screen, population patch clamp on CHO cells stably expressing hERG
# 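Also: peak tail current of the secondary pulse compared with the same well before compound.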
# human ether-à-go-go-related gene (hERG) potassium channel, sequence (Q12809 whole entry, looked up): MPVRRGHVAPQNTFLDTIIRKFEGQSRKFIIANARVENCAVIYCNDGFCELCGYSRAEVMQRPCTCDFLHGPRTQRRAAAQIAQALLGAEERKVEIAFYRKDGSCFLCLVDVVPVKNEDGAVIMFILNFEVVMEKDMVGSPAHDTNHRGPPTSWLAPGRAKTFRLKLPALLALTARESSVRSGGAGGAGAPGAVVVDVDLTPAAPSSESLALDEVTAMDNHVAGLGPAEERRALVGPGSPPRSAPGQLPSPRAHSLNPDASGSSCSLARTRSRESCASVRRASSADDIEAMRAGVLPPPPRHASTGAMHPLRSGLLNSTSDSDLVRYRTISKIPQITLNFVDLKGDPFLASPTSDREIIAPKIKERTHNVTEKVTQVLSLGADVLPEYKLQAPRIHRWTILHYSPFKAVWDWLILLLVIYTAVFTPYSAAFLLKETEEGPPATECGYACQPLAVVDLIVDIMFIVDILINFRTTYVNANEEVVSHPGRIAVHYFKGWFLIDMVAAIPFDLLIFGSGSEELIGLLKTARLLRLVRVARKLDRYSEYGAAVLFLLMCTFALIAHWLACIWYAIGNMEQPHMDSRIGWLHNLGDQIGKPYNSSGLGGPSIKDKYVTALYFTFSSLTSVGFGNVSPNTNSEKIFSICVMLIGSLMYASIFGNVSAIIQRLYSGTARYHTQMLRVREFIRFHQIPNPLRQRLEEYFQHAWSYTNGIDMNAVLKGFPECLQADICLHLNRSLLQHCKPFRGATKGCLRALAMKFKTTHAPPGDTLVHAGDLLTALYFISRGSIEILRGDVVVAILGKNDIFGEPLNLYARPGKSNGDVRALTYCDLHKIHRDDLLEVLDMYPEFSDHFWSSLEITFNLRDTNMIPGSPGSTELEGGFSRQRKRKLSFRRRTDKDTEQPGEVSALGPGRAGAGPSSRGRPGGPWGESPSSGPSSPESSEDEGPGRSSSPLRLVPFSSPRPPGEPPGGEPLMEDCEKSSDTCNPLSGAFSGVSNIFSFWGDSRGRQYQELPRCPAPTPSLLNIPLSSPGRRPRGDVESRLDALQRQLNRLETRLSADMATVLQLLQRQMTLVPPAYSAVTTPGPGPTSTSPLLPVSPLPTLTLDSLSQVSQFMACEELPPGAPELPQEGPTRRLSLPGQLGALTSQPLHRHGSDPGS
row,SMILES,"hERG current change (%, negative = inhibition) at 10uM"
1,Cc1cccc(NC(=O)CN2C(=O)NC(Cc3ccccc3)C2=O)c1 (stereo not shown),0.714%
2,CCOC(=O)c1ccc(N2N=C(C)/C(=C/C=C/c3ccco3)C2=O)cc1,5.01%
3,O=C(Nc1ccccc1Cl)c1ccc(S(=O)(=O)NCC2CCCO2)cc1 (stereo not shown),-8.48%
4,O=C(CCC1CCCCC1)Nc1c2c(nn1-c1ccc(F)cc1)CS(=O)(=O)C2,-36.9%
5,O=C1c2ccccc2S(=O)(=O)c2cc(C(=O)N(c3ccccn3)c3ccccn3)ccc21,16.3%
6,COc1ccc(NC2(c3ccc(Cl)cc3)C(=O)c3ccccc3C2=O)cc1,-5.85%
7,O=C(O)c1sc2cc(C(F)(F)F)cnc2c1-c1ccccn1,13.2%
8,O=C(Nc1ccc2nc3n(c(=O)c2c1)CCCC3)c1cccnc1Cl,12.6%
9,Cc1ccc(C(=O)OC(C)C(=O)c2cc(C)c(C)cc2C)o1 (stereo not shown),-5.34%
10,COc1ccc(S(=O)(=O)n2cnc3ccccc32)cc1OC,12.4%
11,Cc1nc2c(c(=O)[nH]1)C(c1ccc([N+](=O)[O-])cc1)c1c(c3ccccc3oc1=O)O2 (stereo not shown),-20.4%
12,Cc1cc(C)n(-c2cccc(Cl)c2)c(=O)c1C#N,23.5%
13,O=C(O)c1ccc(OS(=O)(=O)c2cccc(C(F)(F)F)c2)cc1,6.34%
14,Br.O=C(O)c1cscn1,4.28%
15,CCOCCCn1c(SCc2nc3ccccc3s2)nc2ccccc2c1=O,-2.07%
16,COCCN(C(=O)CSCC(=O)Nc1ccc(C)cc1)c1c(N)n(CC(C)C)c(=O)[nH]c1=O,17.6%
17,CCCn1c(N)c(C(=O)CSc2nnc(C3CC3)n2-c2ccccc2)c(=O)[nH]c1=O,-2.34%
18,CCOC(=O)c1sc(=S)n(-c2ccc(C)cc2)c1N,17.8%
19,COc1ccc(OCC2NCCc3cc(OC)c(OC)cc32)cc1 (stereo not shown),-8.93%
20,COc1ccc(C)cc1S(=O)(=O)N1CCN(S(=O)(=O)c2cc(C)ccc2OC)CC1,-1.43%
21,O=C1c2[nH]nc(-c3ccccc3O)c2C(c2cccc(Cl)c2)N1Cc1ccco1 (stereo not shown),-3.79%
22,CC12CCC(=O)C=C1CCC1C2CCC2(C)C1CCC2(O)C(=O)CO (stereo not shown),3.96%

row,SMILES,"hERG current change (%, negative = inhibition) at 10uM"
1,N#C/C(=C(/O)COC(=O)c1ccc2c(c1)OCCO2)c1nc2ccccc2[nH]1,7.5%
2,Cc1cc(C)nc(Oc2ccc([N+](=O)[O-])cc2)n1,22.6%
3,O=S(=O)(c1ccccc1)N1N=C(c2cccs2)CC1c1ccc(F)cc1 (stereo not shown),-1.4%
4,CCn1nc(CCC(=O)O)c2ccccc2c1=O,6.13%
5,COCCn1c(=O)c2cc3c(=O)n(CCOC)c(=O)c3cc2c1=O,-4.83%
6,O=C(NCC1OCCc2ccccc21)c1cc(COc2c(F)cccc2F)on1 (stereo not shown),-14.2%
7,Cc1oc(-c2ccccc2F)nc1CS(=O)(=O)CC(=O)N1CCOCC1,15.7%
8,COC(=O)N/N=C/c1cccc([N+](=O)[O-])c1,2.39%
9,O=C(O)CC1(CC(=O)Nc2cc(F)ccc2Cl)CCCCC1,2.36%
10,Cc1nnc(SCC(=O)NCc2ccc3c(c2)OCO3)s1,21.1%
11,COc1ccc(S(=O)(=O)NNC(=O)C(=O)NNc2ccccn2)cc1,6.3%
12,N#CCSc1nc2ccccc2c(=O)n1CCCC(=O)NCc1ccco1,-33.7%
13,Cc1ccnc(SC2CC(=O)N(c3ccc(Cl)cc3)C2=O)n1 (stereo not shown),19.2%
14,Cc1ccc(NC2Sc3ccccc3NC2=O)cc1 (stereo not shown),10.7%
15,COc1ccccc1OCC(=O)Nc1ccccc1C(=O)N1CCCCC1,11.6%
16,CC1CN(c2ccc(S(=O)(=O)N3CCOCC3)cn2)CC(C)O1 (stereo not shown),18.7%
17,CCCCn1c(N)c(N(CCOC)C(=O)C2CCN(S(=O)(=O)c3ccc(C)cc3)CC2)c(=O)[nH]c1=O,14.1%
18,CCc1nnc(NC(=O)c2ccc(S(=O)(=O)NC3CCCCC3)cc2)s1,13%
19,O=C(Nc1ncc(Cl)cn1)c1cccs1,25.9%
20,COC(=O)C1=C(c2cccc(C#N)c2)C[C@@H]2CC[C@H]1N2C(=O)NC1CCCCC1,-12%
21,CC(=O)Nc1ccc(Nc2cc(C)nc3c(-c4ccc(Cl)cc4)c(C)nn23)cc1,3.05%
22,O=C(COC(=O)CCC(=O)c1ccccc1)NCCc1ccccc1,-10.4%

row,SMILES,"hERG current change (%, negative = inhibition) at 10uM"
1,Cc1c(C(=O)O)sc2ncnc(N3CCCCC3C)c12 (stereo not shown),13.6%
2,CCc1cccc(NC(=O)C2CCCN(S(=O)(=O)c3c(C)[nH]c(=O)[nH]c3=O)C2)c1 (stereo not shown),10.1%
3,CC(=O)Nc1ccc(N=Cc2c(O)ccc3ccccc23)cc1,14.6%
4,CC1=Nc2ccccc2N=C(NC(=O)CSC(=S)N2CCCCC2)C1c1ccccc1 (stereo not shown),-1.22%
5,O=C(CSc1ncccn1)NCc1cccs1,11.7%
6,Cc1cc(/C=C2/NC(=O)NC2=O)c(C)n1-c1ccccn1,-4.99%
7,CSc1ccc(NC(=O)Nc2cccn(Cc3ccccc3F)c2=O)cc1,19.3%
8,C=CCNc1nc(C)c(C(C)=O)cc1C#N,6.83%
9,Cc1nn(C(=O)CCC(=O)NCc2cccc(F)c2)c2ccccc12,19.2%
10,Nc1cc(N)nc(SCC(=O)Nc2ccc3c(c2)OCCCO3)n1,8.03%
11,CC(C)[C@@H]1N[C@]2(C(=O)Nc3ccccc32)[C@@H]2C(=O)N(c3cccc(C(F)(F)F)c3)C(=O)[C@@H]21,-7%
12,CCOc1ccc(N2CC(C(=O)NCCc3ccc(S(N)(=O)=O)cc3)CC2=O)cc1 (stereo not shown),12.1%
13,O=C(c1cc(-c2ccc(Cl)s2)nc2ccccc12)N1CCOCC1,-17%
14,COc1cc(/C=N/NC(=O)c2cccnc2)ccc1OC(=O)c1ccc2c(c1)OCO2,24.4%
15,N=Cc1c(O)n(-c2cccc(Cl)c2)c(=O)[nH]c1=O,-10.3%
16,CC(C)Oc1ccc(S(=O)(=O)N(C(C)C)C(C)C)cn1,1.44%
17,CCOC(=O)c1c(C)[nH]c(C2=NNC(=Nc3cccc(Cl)c3)SC2)c1C,0.47%
18,O=C(NCC(c1cccs1)N1CCOCC1)c1ccc(Cl)nc1 (stereo not shown),-8.03%
19,CC(C)(C)[C@@H]1C=C(C(=O)N2CCN(Cc3ccc4c(c3)OCO4)CC2)O[C@H](OCc2ccc(CO)cc2)C1,-35%
20,O=C(CN1C(=O)C2C3C=CC(C3)C2C1=O)N1CC=C(c2ccccc2)CC1 (stereo not shown),-10.1%
21,CCCS(=O)(=O)N1CCC(Cc2ccc(OC)cc2)(C(=O)OCC)CC1,-0.00512%
22,COc1ccc(NC(=O)Cn2c(=O)n(-c3ccccc3)c(=O)c3sccc32)c(OC)c1,0.835%

row,SMILES,"hERG current change (%, negative = inhibition) at 10uM"
1,O=C(CSc1ccc(-c2ccccn2)nn1)N1CCCCC1,12.5%
2,COc1ccc(NC(=O)CSc2nc3ccccc3nc2N2CCCC2)cc1Cl,-27.4%
3,Cc1cc(C)nc(NCC(O)CNc2ccccc2Cl)n1 (stereo not shown),4.35%
4,O=C1CCC(C(=O)N2CCCC(Nc3ccc(F)cc3)C2)=NN1 (stereo not shown),1.7%
5,COc1ccc2nc(/C(C#N)=C\c3ccc(Oc4ccc([N+](=O)[O-])cn4)cc3)[nH]c2c1,-10.6%
6,Cc1ccc(-c2nnn(CC(=O)NCCc3ccc4c(c3)OCO4)n2)o1,6.9%
7,Cc1ccccc1NC(=S)NC1CCN(Cc2ccccc2)CC1,-12.3%
8,O=C(NCCC(=O)N1CCN(c2ncccn2)CC1)c1ccccc1,11.6%
9,CC(=O)OCCCN1c2ccccc2Nc2nnc(-c3ccccc3)cc21,-34.6%
10,COc1ccc(NC(=O)CC(=O)Nc2ccc(OC)cc2OC)c(OC)c1,-2.45%
11,Cc1ccc(C(=O)NCC(=O)OCC(=O)Nc2cc(C)c(C)cc2[N+](=O)[O-])cc1,4.76%
12,CC1CC(C)CN(C(=O)CSCC(=O)Nc2nc(-c3cccs3)cs2)C1 (stereo not shown),8.83%
13,N/C(=N\OC(=O)Oc1ccccc1)c1cccc([N+](=O)[O-])c1,22.7%
14,Cc1ccsc1/C=C1/C(=O)NN(c2ccccc2)C1=O,-9.63%
15,COc1ccccc1NC(=O)CNC(=O)c1ccccc1C,15.7%
16,Cc1ccccc1C1NS(=O)(=O)N=C1N (stereo not shown),23.3%
17,COc1ccc(NC(=O)c2ccco2)cc1NC(=O)c1ccc(C)cc1,3.81%
18,CC(C)CC(=O)N=C1SC2CS(=O)(=O)CC2N1Cc1ccccc1Cl (stereo not shown),6.06%
19,CCCCCCCCN1[C@@H](CC(=O)OC)c2cc(C(F)(F)F)ccc2S1(=O)=O,1.99%
20,Cc1cc(NC(=O)CN2CCOCC2)n(-c2nc3ccccc3s2)n1,10.6%
21,COc1ccc(CC(=O)c2ccc(OC)c(OC)c2C)cc1OC,-15.7%
22,CC1CCCCC1NC(=O)CCNS(=O)(=O)c1ccc2c(c1)CCC(=O)N2 (stereo not shown),6.25%
